Measured values published in the supplement of paper PMC3334620.
Over roughly 33,000 sequences, “E-score (-0.5 to 0.5)” has its median near -0.012; the highest 2% begin near 0.27. Some of the results follow.

Target: T1, Vhr1 (UniProt P40522)
T1 sequence: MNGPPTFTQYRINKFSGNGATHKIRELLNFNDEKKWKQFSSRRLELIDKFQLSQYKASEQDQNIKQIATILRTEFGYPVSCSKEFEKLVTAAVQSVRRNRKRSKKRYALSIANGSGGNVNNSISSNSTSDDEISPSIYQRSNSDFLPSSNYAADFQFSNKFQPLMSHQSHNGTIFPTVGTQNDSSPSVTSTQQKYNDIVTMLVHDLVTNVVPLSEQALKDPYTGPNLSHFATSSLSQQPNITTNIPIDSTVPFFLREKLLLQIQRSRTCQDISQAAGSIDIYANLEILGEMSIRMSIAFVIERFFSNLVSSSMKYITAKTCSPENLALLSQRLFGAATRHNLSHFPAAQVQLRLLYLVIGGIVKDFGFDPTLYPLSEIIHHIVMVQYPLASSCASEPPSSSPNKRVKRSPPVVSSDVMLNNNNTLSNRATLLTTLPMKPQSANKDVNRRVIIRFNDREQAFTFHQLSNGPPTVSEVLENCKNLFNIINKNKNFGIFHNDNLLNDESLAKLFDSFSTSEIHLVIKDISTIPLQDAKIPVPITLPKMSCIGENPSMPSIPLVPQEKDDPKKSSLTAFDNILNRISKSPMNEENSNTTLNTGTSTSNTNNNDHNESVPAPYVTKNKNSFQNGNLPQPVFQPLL
Assay: PBM E-score (8-mer binding enrichment) (E-score (-0.5 to 0.5)); higher = stronger / more preferred TF binding; most listed sequences are background and not binding sites
Details: protein concentration: 200 nM; construct: GST-full length
Method in brief: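 Yeast transcription factors carrying a GST tag, as full-length proteins or DNA-binding domains, were produced by PURExpress in vitro transcription/translation. About 100-200 nM protein was applied to universal all-10-mer Agilent arrays, double-stranded by primer extension on fresh or once-stripped slides. Bound protein was detected with fluorescent anti-GST, and scans were normalised with masliner. The Universal PBM Analysis Suite gave each ungapped eight-base word, pooled with its reverse complement, an E-score, a modified Wilcoxon-Mann-Whitney statistic.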

Going from ACTGACAA to GCAAGTCA, the “PBM E-score” value rises from 0.2 to 0.279.

Compared with TAGCGACA, CACCAGAG is higher in “PBM E-score” value: -0.161 for the first, 0.093 for the second.

First: AGTTTTAG
Second: GTTACTTA
The “PBM E-score” value of the first is lower: -0.129 for the first, -0.0888 for the second.

Compared with GCGCCCGA, AAGACGCA is lower in “PBM E-score” value: 0.153 for the first, -0.0225 for the second.

Going from AGGAAGAC to ACACGATG, the “PBM E-score” value rises from -0.0277 to 0.15.

Going from GGTATAAC to ATCGGCGC, the “PBM E-score” value falls from -0.0444 to -0.057.

Going from ACGCCTCA to GCATTAAC, the “PBM E-score” value rises from -0.069 to 0.0031.

Compared with AAATAAGG, AGCTCCAC is lower in “PBM E-score” value: -0.0132 for the first, -0.0312 for the second.

Going from GGACGCAC to GTAGAATA, the “PBM E-score” value falls from 0.141 to 0.123.

Compared with TCCACGCA, ACGTGACG is lower in “PBM E-score” value: -0.129 for the first, -0.137 for the second.

Compared with CTAGCAAC, CACGGAAA is lower in “PBM E-score” value: 0.0372 for the first, -0.129 for the second.

Going from ATCACAAT to TAGATGGA, the “PBM E-score” value falls from 0.168 to -0.115.

Compared with GAGTCCGC, AAGCCAGA is lower in “PBM E-score” value: 0.224 for the first, -0.165 for the second.

Going from AACCTAAT to ACTACCGA, the “PBM E-score” value falls from -0.0442 to -0.146.

Going from ATTCCGCG to AATATGAA, the “PBM E-score” value falls from 0.0866 to -0.0263.

Compared with CTGCCTGA, CAGCTCGG is lower in “PBM E-score” value: 0.142 for the first, 0.0332 for the second.

Going from ACACGAAT to GTATCGGA, the “PBM E-score” value falls from 0.0686 to -0.254.

First: AATTCAAA
Second: ACCAAGGG
The “PBM E-score” value of the first is lower: -0.204 for the first, -0.0786 for the second.

First: GGGTGTAA
Second: GGTCGCGA
The “PBM E-score” value of the first is lower: 0.0595 for the first, 0.194 for the second.

Going from AGGGTGCC to ATAGTCAA, the “PBM E-score” value rises from -0.121 to 0.165.

First: GTGACATA
Second: CTCCAGAG
The “PBM E-score” value of the first is higher: 0.132 for the first, 0.00702 for the second.

First: CCTCCTAG
Second: AGGACTGG
The “PBM E-score” value of the first is lower: 0.0743 for the first, 0.113 for the second.

Compared with CCACAGCC, CCCAGTCC is lower in “PBM E-score” value: 0.0804 for the first, 0.0481 for the second.

Compared with CCCACTGA, CACAAAGG is lower in “PBM E-score” value: 0.11 for the first, -0.0422 for the second.

First: AGCAGACA
Second: ACGGACAT
The “PBM E-score” value of the first is lower: -0.128 for the first, -0.0239 for the second.

First: AACAGGAT
Second: GGGCCAAC
The “PBM E-score” value of the first is higher: -0.0425 for the first, -0.157 for the second.

Compared with CTTTGGCA, AAAAGGAA is higher in “PBM E-score” value: -0.0623 for the first, -0.0308 for the second.

Going from GACTCTGC to GGAATGTA, the “PBM E-score” value falls from 0.24 to -0.0706.

Going from CTACCTAA to AGCTGGAC, the “PBM E-score” value falls from 0.0659 to -0.17.

First: AAAACTAC
Second: CATGGCTC
The “PBM E-score” value of the first is lower: -0.0122 for the first, 0.28 for the second.

First: CCCAGGGC
Second: GGTCAAAA
The “PBM E-score” value of the first is higher: -0.113 for the first, -0.123 for the second.

Going from CATGTGAA to CCAATGTC, the “PBM E-score” value falls from -0.0938 to -0.167.

First: ACCGGACC
Second: GCTACTTA
The “PBM E-score” value of the first is higher: 0.0247 for the first, -0.168 for the second.

Compared with ACTAACGG, ATGGCGTA is lower in “PBM E-score” value: 0.0911 for the first, 0.00916 for the second.

Going from GATAACAA to GAAGACTA, the “PBM E-score” value rises from 0.00571 to 0.163.

First: GATGGCCC
Second: ACCGACCT
The “PBM E-score” value of the first is lower: -0.233 for the first, 0.0122 for the second.

Going from CTCCACGC to CCCTAGTA, the “PBM E-score” value rises from -0.0874 to -0.0349.

Compared with CATGGTGA, GCGTCCCC is lower in “PBM E-score” value: 0.217 for the first, -0.279 for the second.

First: AGGGTGGC
Second: CGCTCGAG
The “PBM E-score” value of the first is higher: 0.173 for the first, 0.00335 for the second.

Compared with GACTGAGA, CTACTCCA is lower in “PBM E-score” value: 0.0163 for the first, -0.0498 for the second.

Going from ACTCGCCT to ACGTGTTG, the “PBM E-score” value falls from 0.0445 to -0.0244.

Going from CGTCCCAG to GTAGGCCA, the “PBM E-score” value rises from -0.203 to -0.0482.

Going from AGATGCTC to CAGTGGCG, the “PBM E-score” value rises from -0.0987 to 0.14.

Going from CTCGCAGC to CGACATAA, the “PBM E-score” value falls from 0.109 to -0.125.

Going from ACCGATGG to AGCTATAC, the “PBM E-score” value falls from 0.0908 to -0.077.

First: GAAGTTGC
Second: CCCAACGA
The “PBM E-score” value of the first is lower: -0.309 for the first, -0.118 for the second.

Compared with ACCTTAGT, GACGACTC is higher in “PBM E-score” value: 0.0334 for the first, 0.358 for the second.

Going from TAAGCAGA to CCAACGCA, the “PBM E-score” value rises from -0.113 to 0.0132.

First: GAAGTTTA
Second: AGTCGGCG
The “PBM E-score” value of the first is lower: -0.251 for the first, 0.293 for the second.

Compared with ACTCGTGC, GAGGGATC is lower in “PBM E-score” value: 0.0626 for the first, -0.0513 for the second.

First: ATGGCTCA
Second: AATGTCCT
The “PBM E-score” value of the first is higher: 0.293 for the first, -0.185 for the second.

Compared with AGGTACTC, ACCTGCGG is lower in “PBM E-score” value: 0.0984 for the first, -0.0708 for the second.

First: CACGATCA
Second: CGCATGCC
The “PBM E-score” value of the first is higher: 0.145 for the first, 0.13 for the second.

First: AGCTGAAA
Second: AGGACTCA
The “PBM E-score” value of the first is lower: -0.158 for the first, 0.376 for the second.

Going from AACCTGAC to AGACCTCA, the “PBM E-score” value falls from 0.128 to 0.0485.

Compared with ACATTCAC, ACGTTAAC is lower in “PBM E-score” value: 0.0558 for the first, -0.127 for the second.

Going from CGAAGATA to ATTTGATG, the “PBM E-score” value falls from 0.214 to 0.0458.

Compared with ACGCTCTG, CCACCATA is higher in “PBM E-score” value: 0.00722 for the first, 0.176 for the second.

Going from GTCTCCCA to ATTGACTA, the “PBM E-score” value rises from -0.0624 to 0.236.

First: CCAGGGAG
Second: CTCTTGGA
The “PBM E-score” value of the first is higher: 0.09 for the first, 0.0822 for the second.

Going from GAAATCTC to GGCCGTCA, the “PBM E-score” value rises from -0.143 to -0.124.

First: AGAAGGGG
Second: CATCCTTA
The “PBM E-score” value of the first is lower: -0.0634 for the first, 0.0512 for the second.

Compared with CCTGCGCG, CCGCCTCA is lower in “PBM E-score” value: 0.0616 for the first, 0.039 for the second.

Compared with ATCATCCG, TCGGCACA is lower in “PBM E-score” value: 0.182 for the first, -0.0219 for the second.

Going from ACCCGGCT to GACGGCCC, the “PBM E-score” value falls from 0.127 to -0.134.

First: CCGAGTTA
Second: TCTGCACA
The “PBM E-score” value of the first is higher: -0.053 for the first, -0.113 for the second.

First: GACTGTTA
Second: CTGTTCCA
The “PBM E-score” value of the first is higher: -0.0431 for the first, -0.141 for the second.

Going from AAGCAGGC to AGGATCTC, the “PBM E-score” value falls from -0.109 to -0.119.

First: AAACACTC
Second: CTGCACAA
The “PBM E-score” value of the first is higher: 0.15 for the first, -0.0636 for the second.

First: CAACCGAC
Second: AGCACACA
The “PBM E-score” value of the first is lower: 0.0964 for the first, 0.131 for the second.

Going from ATGGGTGC to CTTCGTGA, the “PBM E-score” value rises from 0.0292 to 0.121.

Going from AGGAGTCC to ACCCTGAT, the “PBM E-score” value falls from 0.165 to 0.0649.

Compared with AACGATGG, ACAGAACT is lower in “PBM E-score” value: 0.0685 for the first, 0.0499 for the second.

Compared with AATCTAAA, CTGATATC is lower in “PBM E-score” value: 0.00099 for the first, -0.0297 for the second.

Compared with AGATGAGA, GCAAGGAC is lower in “PBM E-score” value: 0.11 for the first, -0.152 for the second.

Going from GCACCTGA to AAGACAAC, the “PBM E-score” value rises from -0.00933 to -0.00534.

Going from GCGGAAAA to AAGTCTAG, the “PBM E-score” value rises from -0.247 to -0.213.

First: ACCATGAC
Second: ACACAGTA
The “PBM E-score” value of the first is higher: 0.307 for the first, 0.0872 for the second.

Going from ATTTGACC to ATGATATG, the “PBM E-score” value rises from 0.0143 to 0.315.

Compared with GTGCACGA, CAGAGAGG is lower in “PBM E-score” value: -0.0234 for the first, -0.086 for the second.

Going from GGAGTGAC to CCTTCTCG, the “PBM E-score” value falls from 0.266 to -0.186.

First: ATCACCAC
Second: ATAAGGGC
The “PBM E-score” value of the first is higher: 0.143 for the first, -0.0967 for the second.

First: ACTTAGCG
Second: AGGCAAAC
The “PBM E-score” value of the first is higher: 0.045 for the first, -0.00986 for the second.

Compared with GTCGAACA, ACTTTGAA is lower in “PBM E-score” value: 0.0448 for the first, -0.298 for the second.

First: CAGTAGTC
Second: CACCGCTC
The “PBM E-score” value of the first is higher: 0.216 for the first, 0.112 for the second.

First: CCCCGCAG
Second: CCTCTATA
The “PBM E-score” value of the first is higher: -0.0226 for the first, -0.174 for the second.
